Laboratory results published in patent US20230295293A1, “BINDING MOLECULES AGAINST FRa” (AstraZeneca AB, priority 2022, published 2023).

How the values were obtained:
[1] = Hydrophobic interaction chromatography (HIC) HPLC; assay type: physicochemical; conditions: higher retention = more hydrophobic
[2] = Accelerated thermal stability assay, HP-SEC; assay type: physicochemical; conditions: 2 weeks, 1 mg/ml in PBS
Protocol: IgG were diluted to 1 mg/ml in PBS then incubated at 4° C. or 45° C. for 2 weeks then filtered using filter spin columns (Millipore, UFC30HVNB). High performance-size exclusion chromatography (HP-SEC) was performed by loading 70 μl of IgG onto a TSKgel G3000SWXL; 5 μm, 7.8 mm×300 mm column using a flow rate of 1 ml/min and 0.1 M sodium phosphate dibasic anhydrous and 0.1 M sodium sulphate, pH 6.8 as the isocratic running buffer. Larger molecules are excluded from the pores of the size exclusion column to a greater extent than smaller molecules, and therefore elute earlier. Peaks eluting earlier than the monomer peak are recorded as aggregates. Peaks eluting after the monomer peak (excluding the buffer-related peak) are recorded as fragments. In parallel, antibodies were profiled in the HTRF epitope competition assay for changes in potency.

human FRα [3] = biological target: T1, human FRα (Homo sapiens, UniProt P15328); test: HTRF epitope competition assay with Comparator 1 IgG; assay type: binding; conditions: n > 2; human IgG1 format
T1 construct: CD33 leader (signal peptide) (N, cleaved yes); made in house; host or cells: in-house suspension-adapted CHO cell line
T1 sequence (P15328 with tags, fused parts or gaps): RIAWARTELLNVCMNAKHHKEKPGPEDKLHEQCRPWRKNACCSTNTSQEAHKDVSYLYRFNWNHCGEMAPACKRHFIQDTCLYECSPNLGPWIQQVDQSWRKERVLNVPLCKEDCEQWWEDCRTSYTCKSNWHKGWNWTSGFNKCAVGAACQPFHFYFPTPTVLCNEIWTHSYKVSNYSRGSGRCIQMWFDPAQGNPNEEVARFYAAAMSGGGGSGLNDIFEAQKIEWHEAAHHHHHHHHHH
Protocol: (§1) HTRF epitope competition assays were set up using a titration of test IgG, 1 nM streptavidin cryptate, biotinylated human FRα and DyLight 650 labelled IgG to assay volume of 10 μl. For the Comparator Antibody 1 and Comparator Antibody 2 assays, 0.5 nM biotinylated human FRα and 0.5 nM DyLight 650 labelled Comparator Antibody 1 or Comparator Antibody 2 was used. […] Assay plates were incubated for 3-4 h at room temperature prior to fluorescence measurement.

human FRα [4] = biological target: T1, human FRα; test: Biacore T200 surface plasmon resonance affinity; assay type: binding; conditions: SPR 25° C.
Protocol: (§2) Protein A was covalently immobilised to a CM5 chip surface using standard amine coupling techniques at a concentration of 50 μg/ml in 10 mM Sodium acetate, pH 4.0. The antibody was captured onto the Protein A surface in HBS-EP+ buffer, pH 7.4 at 10 μl/min to enable FRα ECD binding. The FRα ECD was serially diluted (0.4 nM-100 nM human FRα ECD; 0.8 nM-200 nM cyno FRα ECD; 30 nM-4000 nM mouse FRα ECD and rat FRα ECD) in HBS-EP+ buffer, pH 7.4 and flowed over the chip at 50 μl/min, with 2 minutes association and 8 minutes dissociation. The chip surface was fully regenerated with pulses of 3 M MgCl2 to remove captured antibody together with any bound FRα ECD. Multiple buffer-only injections were made under the same conditions to allow for double reference subtraction of the final sensorgram sets, which were analysed using Biacore T200 Evaluation Software to derive equilibrium dissociation constants.

cyno FRα [5] = test: HTRF antigen (IgG) binding assay; parameters: species or system cynomolgus monkey; conditions: hybridoma supernatant, 1 nM biotinylated antigen; binder >30% delta F
Protocol: (§3) The negative control ratio was derived from nonspecific binding (NSB) control wells. Curves were analysed using GraphPad Prism software using a four-parameter logistic curve-fitting equation.

human FRα [6] = biological target: T1, human FRα; test: HTRF epitope competition assay with Comparator 2 IgG; assay type: binding; conditions: n > 2; human IgG1 format
Protocol: as §1

human FRβ = biological target: T2, human FRβ (Homo sapiens, UniProt P14207); test: HTRF antigen (IgG) binding assay; conditions: hybridoma supernatant, 1 nM biotinylated antigen; binder >30% delta F
T2 construct: CD33 signal peptide (N, cleaved yes); made in house
T2 sequence (P14207 with tags, fused parts or gaps): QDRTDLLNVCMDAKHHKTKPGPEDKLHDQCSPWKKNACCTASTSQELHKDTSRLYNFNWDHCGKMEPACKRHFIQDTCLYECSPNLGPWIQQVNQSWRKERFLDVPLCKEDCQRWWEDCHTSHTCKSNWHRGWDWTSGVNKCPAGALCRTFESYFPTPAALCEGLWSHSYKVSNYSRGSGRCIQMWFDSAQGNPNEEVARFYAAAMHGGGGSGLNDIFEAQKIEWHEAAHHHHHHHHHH
Protocol: as §3

mouse FRα = biological target: T3, mouse FRα (Mus musculus, UniProt P35846); test: HTRF antigen (IgG) binding assay; conditions: hybridoma supernatant, 1 nM biotinylated antigen; binder >30% delta F
T3 construct: CD33 signal peptide (N, cleaved yes); made in house
T3 sequence (P35846 with tags, fused parts or gaps): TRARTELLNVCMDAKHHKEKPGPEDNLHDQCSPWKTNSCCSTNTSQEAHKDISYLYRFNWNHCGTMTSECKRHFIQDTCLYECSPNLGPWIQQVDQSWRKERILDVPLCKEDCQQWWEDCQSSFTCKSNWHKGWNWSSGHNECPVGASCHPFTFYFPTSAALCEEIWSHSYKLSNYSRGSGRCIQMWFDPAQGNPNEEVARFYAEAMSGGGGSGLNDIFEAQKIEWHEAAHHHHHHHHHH
Protocol: as §3

human FRγ = biological target: T4, human FRγ (Homo sapiens, UniProt P41439); test: HTRF antigen (IgG) binding assay; conditions: hybridoma supernatant, 1 nM biotinylated antigen; binder >30% delta F
T4 construct: CD33 signal peptide (N, cleaved yes); made in house
T4 sequence (P41439 with tags, fused parts or gaps): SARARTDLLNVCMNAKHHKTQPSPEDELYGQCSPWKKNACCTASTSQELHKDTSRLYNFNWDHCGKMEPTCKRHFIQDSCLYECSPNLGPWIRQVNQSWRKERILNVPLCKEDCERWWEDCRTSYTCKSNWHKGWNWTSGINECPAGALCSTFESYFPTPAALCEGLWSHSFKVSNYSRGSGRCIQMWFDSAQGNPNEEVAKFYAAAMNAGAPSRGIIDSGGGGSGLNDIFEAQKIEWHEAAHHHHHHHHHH
Protocol: as §3

human FRα [7] = biological target: T1, human FRα; test: HTRF antigen (IgG) binding assay; conditions: hybridoma supernatant, 1 nM biotinylated antigen; binder >30% delta F
Protocol: as §3

[8] = Pharmacokinetics of anti-FRα antibodies in wild-type SCID mice; assay type: in vivo, mouse; conditions: 5 mg/kg iv bolus, total antibody
Protocol: Pharmacokinetic parameters were determined using Phoenix 64 software (Certara).
Plasma antibody concentrations were determined by the universal ELISA IgG assay.

human FRα [9] = biological target: T1, human FRα; test: HTRF epitope competition assay with Comparator 3 IgG; assay type: binding; conditions: n > 2; human IgG1 format
Protocol: as §1

cyno FRα [10] = test: Biacore T200 surface plasmon resonance affinity; assay type: binding, cynomolgus monkey; conditions: SPR 25° C.
Protocol: as §2

B1: AB1370117: anti-FRα fully human IgG1 antibody; VH SEQ ID NO: 47, VL SEQ ID NO: 48 (antibody, V domains shown)
VH: QVQLQQSGPGLVKPSQTLSLTCAISGDSVSSDSATWNWIRQSPSRGLEWLGRTYYRSKWYSDYAVSVKSRITINPDTSKNQFSLQLNSVTPEDTAVYFCARGGAPFDYWGQGTLVTVSS
VL: [letters of about 100 residues not shown]MYTFGQGTKLEIK
[1]
  Retention time by HIC-HPLC: 2.27 min
[2]; 4° C.
  HP SEC % monomer: 99.4%
[2]; 45° C.
  HP SEC % monomer: 97.0%
Human FRα [3]
  HTRF epitope competition assay, geomean IC50 (M), Comparator 1 IgG: inhibited
Human FRα [4]
  ka: 293000 M⁻¹ s⁻¹
  kd: 0.000762 s⁻¹
Cyno FRα [5]
  HTRF IgG binding assay (% Delta F) Cyno FRα: 67.23 % Delta F
Human FRα [6]
  HTRF epitope competition assay, geomean IC50 (M), Comparator 2 IgG: inhibited
Human FRβ
  HTRF IgG binding assay (% Delta F) Human FRβ: −1.07 % Delta F
Mouse FRα
  HTRF IgG binding assay (% Delta F) Mouse FRα: −3.41 % Delta F
Human FRγ
  HTRF IgG binding assay (% Delta F) Human FRγ: −1.77 % Delta F
Human FRα [7]
  HTRF IgG binding assay (% Delta F) Human FRα: 79.81 % Delta F
[8]
  AUClast: 762 µg·days/mL
  CL: 5.2 mL/kg/day
  Cmax: 110.9 µg/mL
  Vss: 71 mL/kg
  t1/2: 10.0 days
Human FRα [9]
  HTRF epitope competition assay, geomean IC50 (M), Comparator 3 IgG: inhibited
Cyno FRα [10]
  ka: 364000 M⁻¹ s⁻¹
  kd: 0.00187 s⁻¹
